The test system of experiment [1] is ouabain-induced ERK phosphorylation in LLC-PK1 cells. Briefly: ouabain-induced ERK phosphorylation, Western blot. It counts as cell-based. The following applies: 0.5 μM peptide for 1 hour, then 100 nM ouabain for 10 minutes, FIG. 7A. The procedure:
(§1) The cells were then stimulated with 100 nM ouabain for 10 minutes and assayed for phosphorylated ERK by Western blot.

The next experiment has as its system LLC-PK1 cells. In words: ouabain-mediated cell proliferation. Type of experiment: cell-based. The following applies: 1 μM peptide, 10 nM ouabain, FIG. 8. The protocol: as §1

Take “NaSH2: CD2C2 synthesized with the same TAT tag, not phosphorylated at Y260 (GRKKRRQRRRPPQSTNCVEGTARGIVVYTGD; TAT tag; HIV-TAT NaSH2 Fusion Peptide)”: the “ouabain-induced ERK phosphorylation” value in experiment [1] was “but not NaSH2”. Besides, in the experiment on LLC-PK1 cells, the “inhibition of ouabain-induced cell proliferation” value is “ineffective at the concentration utilized”.

The values above are taken from patent US10781431B2, “Cardiotonic steroid antagonists and related methods” (MARSHALL UNIVERSITY RESEARCH CORPORTION, priority 2014, dated 2020).
